B1: CPEB3 Ribozyme (parent)
chain: UAACAGGGGGCCACAGCAGAAGCGUUCACGUCGCAGCCCCUGUCAGAUUCUGGUGAAUCUGCGAAUUCUGCUGUAUAUCUC

The source gives no read counts; variants with many changes may rest on few reads.

In this data set the parent is B1. Put plainly: self-cleavage, relative activity (ratio to wild type); higher = more cleavage; in vitro, sequencing. In short, it runs like this:
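Barcoded CPEB3 ribozyme mutants, produced by rounds of error-prone PCR, self-cleaved while being transcribed with T7 RNA polymerase for 5 hours at 37°C and during a subsequent 15 min DNase I step before EDTA was added. Sequencing of template-switched cDNA on Illumina gave cleaved and total reads, and DNA sequencing assigned barcodes to variants. Each variant's relative activity is its cleaved/total read fraction divided by the unmutated ribozyme's fraction, averaged across three batches. A variant needed a minimum of 5 reads.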
As to AAACGGGGGGCCACAGCAGGAGCGUUCACGUCGCAGCCCCUGCCAGAUUCUGGUGAACCUGCGAAUACUGCUGUAUAUCUC, the self-cleavage turned out to be 0.11.
As to AGACAGGGGGCCACAGCAGAAGCGUUCACGUCGCGGCCCCUGUCAGAUUCUGGAGAAUCUGCGAUUACUGCUGUAUAUCUC, the self-cleavage was determined as 0.89.
With ACACAGGGGGCCACAGAAGAAGCGCUCACGUCGCGGCCCCUGUCAGAUUCUAGUGAAUCUGCGAAUUCUGCUGUAUAUCUC the figure was 0.08; with AAACAGGGGGCCUCGGCAGAGGCGUUCACGUUGCCGCCCCUGUCAGAUUCUGGUGAAUCUGCGAAUUCUGCUGUAUAUCCC, 0.47; with AAACUGGGGGCCACAGCGGAAGCGUUCACGUCGCAGCCCCUGUCAGAUUCUGGUGGACCUGCGAAUUCUGCCGUAAAUCUC, 0.23.
The same measure for AAACGGGGGGCCACGGCAGAAGCGUUCACGUCGCAGCCCCUGUCAGAUUCUGGUGAAUCUGCGUAUUCUGCUGUAUAUCUC: 0.48; for AAACAGGGGGCCGCAGCAGAGGCGUUCACGUCGCAGCCCCUGUCAGGUUCUGGUGAAUCUGCGAGUUCUGCUGUAUAUCUC: 0.16.
As to AAUCAGGGGGCCACAGCAGGAGCGUUCACGUCGCAGCCCCUGUCAGAUUCUGGUGAAUCUGCGAAUUCUGCUGUAUAUCUC, the self-cleavage turned out to be 1.
In the case of AAGCAGGGGGCCACAGCGGAAGCGUUCACGUCGCGGCCCCAGUCAGAUUCUGGCGAAUCUGCGAAUUCUGCUGUAUGUCUC, the self-cleavage came out at 0.33.
The same measure for AAACAGGGGGCCGGAGCAGAAGCGUUCACGUCGCAGCCCCUGACAGAUUCUGGUGAAUCUGCGAAUUCUGCUGUAUAUCUC: 0.79.
Regarding AAACGGGGGGCCACUGCAGAAGCGUUCACGUCGCAGCCCCUGUCGGACUCUGGUGAAUCUGCGAAUUCUGCUGUAUAUCCC, the self-cleavage amounted to 0.06.
The same measure for AAACAGGGGGCCUCAGCAGAAGCGUUCACGUCGCAGCCCCUGUCAGAUUUUGGUGAAGCUGCGAAUUCUGCUGUAUAUCUC: 0.34.
In the case of AAACGGGGGGCCACAGCAGAAGCGUUCACGUCGCAGCCCCUGUCAGAUUCUGGUGAAUCUGCGACUUCUGCUGUAUAUCUC, the self-cleavage was 0.31.
With AACCAGGGGGCCACAGCAGAAGCGUUAACGUCGCAGCCCCUGUCAGAUUCUGGUGAAUCCCCGAAUUCUGCUGUAUAUCUC the figure was 0.2; with AAACAGGGGGCCUCGGCAGAAGCGUUCGCGUCGCAGCCCCUGUCAGAUUCUGGUGAAUCUGCGAAUUCUGCUAUAUAUCUC, 1.06.
With AUACAGGGGGCCACAGCAGAAGCGUUCACGUCGCAGCCCCUGUCAGAUUCUGGUGAAUCCGCGAAUUCGGCUGUAUAUCUC the figure was 0.42; with AGACAAGGGGCCACAGCAGAAGCGUUCACGUCGCAGCCCCCGUCAGAUUCUGGUGAAUCUGCGAAUUCUGCUGUAUACCUC, 0.46; with AAACGGGGGGCCACAGCAGAAGCGUUCACGUCGCAGCCCCUGUCAGAUUCUGGUGAGUCUGCGUAUUCUGCUGUAUAUCUC, 0.53.
For the variant AAUCAGGGGGCCACAGCAGAAGCGUUCGCGUCGCAGCCCCUGUCAGAUUCUGGUGAAUCUGCGAAUUCUGCUGUAUAUCUC, the self-cleavage is 1.03.
As to AAACAGGGGGCCUCAGCAGAAGCGUUCACGUCGCAGCCCCUGGCAGAUUCUGGUGAAUCUGCGAAUUCUGCUGUAUAUCUC, the self-cleavage stood at 0.19.
Consider AAGCAGGGGGCCACAGCAGUAGCGUCCACGUCGCAGCCCCUGUCAGAUUCUGGUGAAUCUGCGAAUUCUGCCGUAUAUCUC, for which the self-cleavage was 0.19.
The same measure for AAACGGGGGGCCACAGCAGAAGCGUUCACGUCGCAGCCCCUGACAGAUUCGGGUGAGUCUGCGAAUUCUGCUGUAUAUCUC: 0.45; for AAACAGGGGGCCGCAGCAGAAGCAUUCACGUCGCAGCCCCUGUCAGAUUCUGGUGAAUCUGCGAAUUCUGCUGUAUAUCUC: 0.15; for AAACAGGGGGCCUCAGCAGAAGCGUUCACGUCGCAGCCCCUGUCAGGUUCUGGUGAAUCUGCGAAUUCUGCUGUAUAUCUC: 1.24.
As for AAACGGGGGGCCACAGCAGAAGCGUUAACGUCGCAGCCCCUGUCAGAUACUGGCGAAUCUGCGAAUUCCGCUGUAUAUCUC, the self-cleavage was determined as 0.22.
With AGACAGGGGGUCACAGCAGAAGCGUUCACGUCGCAGCCCCUGUCAGAUUCUGGUGAAUCUGCGAAUGCUGCUGUAUAUCUC the figure was 0.05; with AAACAGGGGGCCACCGCAGAAGCGUUCACGUCGCAGCCCCUGUCAGAUUCUGGAGAAUCUGCGAAUUCUGCUGUAUAUCUC, 0.75.
Regarding AAGCAGGGGGCCACAGCAGAAGCGCUCACGUUGCUGCCCCUGUCAGGUUCUGGUGAAUCUGCGAAUUCUGCUGUAUAUCUC, the self-cleavage was found to be 0.11.
With AAACAGGGGGCCUCAGCAGGAGCGUUCACGUCGCAGCCCCUGUCAGAUUCUGGUGAAUCUGCGAAUUCUGCUGUAUAUCCC the figure was 1.09; with AAACAGGGGGCCGCAGCAGAAGCGUUCACGUCGCGGCCCCUGUCAGAUUCUGGUGAAUCUGCGAAUUCUGCUGUAUAUCUC, 0.59; with AACCAGGGGGCCACAGCAGAAGAGUUCACGUCGCAGCCCCUGUCAGAUUCUGGUGAAUCUGCGAAUUCUGCAGUAUAUCUC, 0.32.
As for AAACAGGGGGCCGCAGCAGAAGCGUUCACGUCGCAGCCGCUGUCAGAUUCUGGUGAAUCUGCGAAUUCUGCUGUAUAUCUC, the self-cleavage amounted to 0.28.
With AAACAGGGGGCCUCAGCAGAAGCGUUCACGUCGCAGCCCCUGUCAGAUUCUGAUGAAUCUGCGAAUACUGCCGUAUAUCUC the figure was 0.29.
With AAGCAGGGGGCCACAGCAGAGGCGUUCACGUCGCAGCCCCUGUCAGAUUCUGGUGAAUCUGCGAAUUCUGCUGUGUAUCUC the figure was 0.75.

Values taken from the RNAGym collection of RNA variant scans (doi:10.1093/nar/gkz1192).
